According to a collection of fitness landscapes (doi:10.1126/science.1257360):
The list shows a part of the results.

B1: PhoQ; a variant is named by its letters at X, in order, P23837 (parent)
chain: MKKLLRLFFPLSLRVRFLLATAAVVLVLSLAYGMVALIGYSVSFDKTTFRLLRGESNLFYTLAKWENNKLHVELPENIDKQSPTMTLIYDENGQLLWAQRDVPWLMKMIQPDWLKSNGFHEIEADVNDTSLLLSGDHSIQQQLQEVREDDDDAEMTHSVAVNVYPATSRMPKLTIVVVDTIPVELKSSYMVWSWFIYVLSANLLLVIPLLWVAAWWSLRPIEALAKEVRELEEHNRELLNPATTRELTSLVRNLNRLLKSERERYDKYRTTLTDLTHSLKTPLXXLQXXLRSLRSEKMSVSDAEPVMLEQISRISQQIGYYLHRASMRGGTLLSRELHPVAPLLDNLTSALNKVYQRKGVNISLDISPEISFVGEQNDFVEVMGNVLDNACKYCLEFVEISARQTDEHLYIVVEDDGPGIPLSKREVIFDRGQRVDTLRPGQGVGLAVAREITEQYEGKIVAGESMLGGARMEVIFGRQHSAPKDE

Variants of: B1
Assay: enrichment ratio after two sorts for PhoP signalling (ratio (wild type AVST 3.29)); higher = more functional
Conditions: with PhoP (E. coli)

| Variant | enrichment ratio |
| --- | --- |
| KTKA | ≤ 0.25 |
| LCEL | ≤ 0.25 |
| WICG | ≤ 0.25 |
| TRDP | ≤ 0.25 |
| ARTH | ≤ 0.25 |
| VEME | ≤ 0.25 |
| STQR | ≤ 0.25 |
| YWMP | ≤ 0.25 |
| VIMD | ≤ 0.25 |
| IFNF | ≤ 0.25 |
| KHTE | ≤ 0.25 |
| DIWH | ≤ 0.25 |
| WKRG | ≤ 0.25 |
| SFVR | ≤ 0.25 |
| SVAV | 7.92 |
| GHGV | ≤ 0.25 |
| PNPM | ≤ 0.25 |
| NMHE | ≤ 0.25 |
| IKES | ≤ 0.25 |
| DSSD | ≤ 0.25 |
| PMCQ | ≤ 0.25 |
| SCLV | 9.82 |
| REER | ≤ 0.25 |
| ETVQ | ≤ 0.25 |

| Variant | enrichment ratio |
| --- | --- |
| FTFV | ≤ 0.25 |
| ANLT | 4.56 |
| DTMC | ≤ 0.25 |
| YRWC | ≤ 0.25 |
| PLWE | ≤ 0.25 |
| LQST | ≤ 0.25 |
| QDES | ≤ 0.25 |
| PPLG | ≤ 0.25 |
| NMFI | ≤ 0.25 |
| VTEI | ≤ 0.25 |
| QIHR | ≤ 0.25 |
| YSYA | ≤ 0.25 |
| NKER | ≤ 0.25 |
| KGDA | ≤ 0.25 |
| SVQN | ≤ 0.25 |
| GMST | 0.716 |
| AHMV | ≤ 0.25 |
| HTNW | ≤ 0.25 |
| QDPS | ≤ 0.25 |
| AFKD | ≤ 0.25 |
| EFLE | ≤ 0.25 |
| HMGE | ≤ 0.25 |
| DLYK | ≤ 0.25 |
| LWCQ | ≤ 0.25 |

| Variant | enrichment ratio |
| --- | --- |
| YHTL | ≤ 0.25 |
| QSHS | ≤ 0.25 |
| SASC | 8.6 |
| EWHP | ≤ 0.25 |
| IGIM | ≤ 0.25 |
| DITY | ≤ 0.25 |
| MSLH | ≤ 0.25 |
| MITS | ≤ 0.25 |
| MVYE | ≤ 0.25 |
| LVMT | ≤ 0.25 |
| PVIH | ≤ 0.25 |
| WCLI | ≤ 0.25 |
| FQRK | ≤ 0.25 |
| FNVN | 1.2 |
| VKKA | ≤ 0.25 |
| VNVS | 0.476 |
| GSTY | 0.758 |
| VWYP | ≤ 0.25 |
| HWFP | ≤ 0.25 |
| QIRI | ≤ 0.25 |
| PGTF | ≤ 0.25 |
| NQIV | ≤ 0.25 |
| KTWR | ≤ 0.25 |
| GWSP | ≤ 0.25 |

| Variant | enrichment ratio |
| --- | --- |
| QISQ | 4.86 |
| KDWS | ≤ 0.25 |
| IFND | ≤ 0.25 |
| VNQF | ≤ 0.25 |
| NVGF | ≤ 0.25 |
| DQVA | ≤ 0.25 |
| SGIQ | 11.9 |
| QSFI | 4.06 |
| VIVC | ≤ 0.25 |
| LVTH | ≤ 0.25 |
| YKVY | ≤ 0.25 |
| DMNY | ≤ 0.25 |
| MTHA | ≤ 0.25 |
| SLVD | ≤ 0.25 |
| LINN | ≤ 0.25 |
| EGGA | ≤ 0.25 |
| HEGA | ≤ 0.25 |
| RINK | ≤ 0.25 |
| MHSD | ≤ 0.25 |
| LCPL | ≤ 0.25 |
| NAHQ | ≤ 0.25 |
| IIEL | ≤ 0.25 |
| GPIM | ≤ 0.25 |
| YENW | ≤ 0.25 |

| Variant | enrichment ratio |
| --- | --- |
| QLPA | ≤ 0.25 |
| RDAR | ≤ 0.25 |
| MNLD | ≤ 0.25 |
| NNVW | ≤ 0.25 |
| RDPA | ≤ 0.25 |
| TDPQ | ≤ 0.25 |
| ISVC | ≤ 0.25 |
| VEIH | ≤ 0.25 |
| AWVR | ≤ 0.25 |
| SFVI | ≤ 0.25 |
| QCDW | ≤ 0.25 |
| PASS | ≤ 0.25 |
| PCFN | ≤ 0.25 |
| PRKS | ≤ 0.25 |
| DHEW | ≤ 0.25 |
| DHVV | ≤ 0.25 |
| YIVN | 0.608 |
| MELT | 5.98 |
| FWKW | ≤ 0.25 |
| GSSS | 1.42 |
| TLKN | ≤ 0.25 |
| DSEN | ≤ 0.25 |
| DANV | ≤ 0.25 |
| YSWS | ≤ 0.25 |

| Variant | enrichment ratio |
| --- | --- |
| TSDR | ≤ 0.25 |
| RPFK | ≤ 0.25 |
| HQYK | ≤ 0.25 |
| HYLK | ≤ 0.25 |
| HAYS | ≤ 0.25 |
| FDRW | ≤ 0.25 |
| CTMT | ≤ 0.25 |
| HIRD | ≤ 0.25 |
| ECRS | ≤ 0.25 |
| MRPD | ≤ 0.25 |
| FHQS | ≤ 0.25 |
| WTRH | ≤ 0.25 |
| DFPQ | ≤ 0.25 |
| RCIM | ≤ 0.25 |
| EQFQ | ≤ 0.25 |
| NYID | ≤ 0.25 |
| SVKC | ≤ 0.25 |
| GYPI | ≤ 0.25 |
| SQRS | ≤ 0.25 |
| PLPV | ≤ 0.25 |
| IIMQ | ≤ 0.25 |
| NKLS | ≤ 0.25 |
| DILM | ≤ 0.25 |
| IIQK | ≤ 0.25 |

| Variant | enrichment ratio |
| --- | --- |
| NPTF | ≤ 0.25 |
| NDAL | ≤ 0.25 |
| AYRE | ≤ 0.25 |
| EFMH | ≤ 0.25 |
| YSWH | ≤ 0.25 |
| MDDA | ≤ 0.25 |
| WAHL | ≤ 0.25 |
| DLEA | ≤ 0.25 |
| PYIH | ≤ 0.25 |
| VREG | ≤ 0.25 |
| IGMH | ≤ 0.25 |
| HEWC | ≤ 0.25 |
| IDAA | ≤ 0.25 |
| PFWQ | ≤ 0.25 |
| NDIR | ≤ 0.25 |
| MYIY | ≤ 0.25 |
| EHDH | ≤ 0.25 |
| HFVY | ≤ 0.25 |
| EFMM | ≤ 0.25 |
| YSME | 1.23 |
| PFMK | ≤ 0.25 |
| GVMM | ≤ 0.25 |
| FDDP | ≤ 0.25 |
| TSSW | ≤ 0.25 |

| Variant | enrichment ratio |
| --- | --- |
| QCRC | ≤ 0.25 |
| PHYN | ≤ 0.25 |
| DDHP | ≤ 0.25 |
| ELAD | ≤ 0.25 |
| EAHM | ≤ 0.25 |
| LTPA | ≤ 0.25 |
| KRFR | ≤ 0.25 |
| RTTS | ≤ 0.25 |
| VPIY | ≤ 0.25 |
| HVNS | ≤ 0.25 |
| TPRC | ≤ 0.25 |
| RGYA | ≤ 0.25 |
| KKSP | ≤ 0.25 |
| CSNA | ≤ 0.25 |
| STHT | ≤ 0.25 |
| VHCK | ≤ 0.25 |
| FPAG | ≤ 0.25 |
| IGFR | ≤ 0.25 |
| DFWA | ≤ 0.25 |
| GFNQ | ≤ 0.25 |
| LMWR | ≤ 0.25 |
| YEGI | ≤ 0.25 |
| IKLV | ≤ 0.25 |
| YMFC | ≤ 0.25 |

| Variant | enrichment ratio |
| --- | --- |
| VFYT | ≤ 0.25 |
| FFIL | ≤ 0.25 |
| VFYH | ≤ 0.25 |
| VNSG | 1.9 |
| WKIQ | ≤ 0.25 |
| LMAN | ≤ 0.25 |
| SGDE | ≤ 0.25 |
| NRRA | ≤ 0.25 |
| FPDG | ≤ 0.25 |
| KCVW | ≤ 0.25 |
| WFVG | ≤ 0.25 |
| WGRD | ≤ 0.25 |
| TEVD | ≤ 0.25 |
| PRRY | ≤ 0.25 |
| PLVD | ≤ 0.25 |
| AMIF | ≤ 0.25 |
| ETSM | ≤ 0.25 |
| IGHI | ≤ 0.25 |
| NEIF | ≤ 0.25 |
| IRRN | ≤ 0.25 |
| WHDY | ≤ 0.25 |
| PGIR | ≤ 0.25 |
| SDQP | ≤ 0.25 |
| RAQP | ≤ 0.25 |

| Variant | enrichment ratio |
| --- | --- |
| MSRQ | ≤ 0.25 |
| EVDW | ≤ 0.25 |
| DDSA | ≤ 0.25 |
| DVRC | ≤ 0.25 |
| QKGV | ≤ 0.25 |
| KGLH | ≤ 0.25 |
| HTAA | ≤ 0.25 |
| NRGE | ≤ 0.25 |
| SEVD | 8.74 |
| TQKD | ≤ 0.25 |
| DHII | ≤ 0.25 |
| ETKA | ≤ 0.25 |
| RDGL | ≤ 0.25 |
| QQTP | ≤ 0.25 |
| FWMG | ≤ 0.25 |
| EYPH | ≤ 0.25 |
| YQMW | ≤ 0.25 |
| VAGR | ≤ 0.25 |
| RIII | ≤ 0.25 |
| APPV | ≤ 0.25 |
| FHCQ | ≤ 0.25 |
| YKMN | ≤ 0.25 |
| SKPA | ≤ 0.25 |
| VGWH | ≤ 0.25 |

| Variant | enrichment ratio |
| --- | --- |
| PEVW | ≤ 0.25 |
| NNTV | 2.11 |
| DYAS | ≤ 0.25 |
| MCSL | 8.37 |
| DQRM | ≤ 0.25 |
| FLMG | ≤ 0.25 |
| DGPV | ≤ 0.25 |
| TMNM | 35 |
| MQGV | ≤ 0.25 |
| QNYM | ≤ 0.25 |
| SSWM | 6.76 |
| LMST | ≤ 0.25 |
| HPGL | ≤ 0.25 |
| HDAV | ≤ 0.25 |
| GHDF | ≤ 0.25 |
| DWFR | ≤ 0.25 |
| GHWF | ≤ 0.25 |
| PLKR | ≤ 0.25 |
| PCPR | ≤ 0.25 |
| LPFV | ≤ 0.25 |
| LHYE | ≤ 0.25 |
| YHYK | ≤ 0.25 |
| VEED | ≤ 0.25 |
| QKFD | ≤ 0.25 |

| Variant | enrichment ratio |
| --- | --- |
| DSHE | ≤ 0.25 |
| EVTM | ≤ 0.25 |
| VEVC | 5.85 |
| HFGR | ≤ 0.25 |
| RDKT | ≤ 0.25 |
| DNWC | ≤ 0.25 |
| RIPG | ≤ 0.25 |
| QKMP | ≤ 0.25 |
| QENV | ≤ 0.25 |
| INPE | ≤ 0.25 |
| SCHF | ≤ 0.25 |
| FPSQ | ≤ 0.25 |
| QPAS | ≤ 0.25 |
| DSGQ | ≤ 0.25 |
| KSMG | ≤ 0.25 |
| WLSR | ≤ 0.25 |
| WLPH | ≤ 0.25 |
| MECQ | ≤ 0.25 |
| GLDE | ≤ 0.25 |
| LTLH | ≤ 0.25 |
| SHMR | ≤ 0.25 |
| GMDI | ≤ 0.25 |
| FWSI | ≤ 0.25 |
| MDHL | ≤ 0.25 |

| Variant | enrichment ratio |
| --- | --- |
| VRDQ | ≤ 0.25 |
| YPGT | ≤ 0.25 |
| YQTD | ≤ 0.25 |
| VVGG | ≤ 0.25 |
| PSSE | ≤ 0.25 |
| MNPA | ≤ 0.25 |
| PQAD | ≤ 0.25 |
| EKES | ≤ 0.25 |
| WCRM | ≤ 0.25 |
| HEKC | ≤ 0.25 |
| LCGC | ≤ 0.25 |
| QISV | ≤ 0.25 |
| VSQI | ≤ 0.25 |
| SDTN | ≤ 0.25 |
| MPSL | ≤ 0.25 |
| ACSR | 7.12 |
| THNF | 7.91 |
| VEWN | ≤ 0.25 |
